Patent US7741244B2, “Fungicide compositions” (priority 2002, dated 2010)

Key:
[1] = test system: Botrytis cinerea (primary), Rhizopus (secondary); experiment: Inhibition of fungus infection on strawberries, dip (Example 4); assay type: in vivo
Excerpt: (§1) Strawberries were harvested from the four separated areas.

[2] = test system: Botrytis cinerea (primary), Rhizopus (secondary); experiment: Inhibition of fungus infection on strawberries, dip (Example 5); conditions: 60 s dip
Excerpt: as §1

**Q.** How did the “inhibition of fungal infection of strawberries (in words)” value ([1]; only glycolic acid used) turn out when `O=C(O)CO` [glycolic acid] was run?
**A.** No inhibition

**Q.** What about the “Infected berries (% of total) Day 3” value ([1]; strawberries (Northeaster), 60 s dip, day 3 after treatment) of the same compound?
**A.** 75%

**Q.** And the “Infected berries (% of total) Day 4” value ([1]; strawberries (Northeaster), 60 s dip, day 4 after treatment)?
**A.** 90%

**Q.** And the “Infected berries (% of total) Day 5” value ([1]; strawberries (Northeaster), 60 s dip, day 5 after treatment)?
**A.** 100%

**Q.** What about the “Infected berries (% of total) Day 6” value ([1]; strawberries (Northeaster), 60 s dip, day 6 after treatment) of the same compound?
**A.** 100%

**Q.** And the “Infected berries (% of total) Day 7” value ([1]; strawberries (Northeaster), 60 s dip, day 7 after treatment)?
**A.** 100%

**Q.** What about the “Infected berries (% of total) Day 2” value ([2]; day 2 after treatment) of the same compound?
**A.** 70%

**Q.** What about the “Infected berries (% of total) Day 3” value ([2]; day 3 after treatment) of the same compound?
**A.** 95%

**Q.** And the “Infected berries (% of total) Day 4” value ([2]; day 4 after treatment)?
**A.** 100%
